Among the data in the supplement of paper PMC4723716 are viability index values, retold here.

Whole data set: some 3,600 compounds, median “viability index relative to DMSO control” near 0.81, cut for the lowest 2% near 0.13. The list shows a part of the results.
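Note: 384-well serum-free SaLSSA: MitoTracker Red CMXRos staining with saponin lysis, high-content imaging, treated-well particle count divided by plate-mean count of DMSO wells.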

The test has as its system Plasmodium falciparum NF54 stage V gametocytes. Kind of test: viability index relative to DMSO control (fraction); higher = less gametocyte killing. Conditions: 1.25 µM, incubation time: 72 h.
Take `CSc1ccc(C=CC(=O)NC(=O)c2ccccc2O)cc1`: the viability index was 0.661. With `CCOc1ccc(C2=NC3(CCN(C(C)C)CC3)NC(c3cc(Cl)ccc3O)C2)cc1` (centres undefined), the viability index worked out at 0.892.

The molecule `COc1ccc(C=C2SC(=Nc3ccccc3)NC2=O)c(OC)c1` showed a viability index of 0.815.

`Clc1cccc(CCNC2CCN(CCc3ccccc3)CC2)c1`: the viability index turned out to be 1.16.

`COC(=O)C1=C(C)NC2=C(C(=O)CC(c3ccccc3)C2)C1c1ccc(Cl)cc1` (centres undefined) returned a viability index of 0.709. The figure for `COc1ccc(C(=O)C[N+]2=C(C)c3ccc(C)n3CC2)cc1` is 0.649. Turning to `Cc1ccc(C)c(-c2csc(Nc3ccc(C)c(C)c3)n2)c1`, the viability index turned out to be 0.568. For `CC1CN(C(=O)CCCSc2nnc(Cc3ccccc3)n2-c2ccc(Cl)c(Cl)c2)CC(C)O1` (centres undefined), the viability index came to 0.548. `Cc1nn(CC(O)Cn2c3ccc(Cl)cc3c3cc(Cl)ccc32)c(C)c1Br` (centres undefined) registered a viability index of 0.351. With `CN1CCC(NCCc2ccc(Cl)cc2)CC1` the figure was 0.853; with `CSc1nnc(NC(=O)C2CC2)s1`, 0.736. Molecule `O=C(CCc1ccccc1)c1ccccc1OCC(O)CN1CCCCC1` (centres undefined) registered a viability index of 0.6. For `CCCCN1C(=O)/C(=C2/Sc3ccccc3N2C)SC1=Nc1cc(C)ccc1C`, the viability index came to 1.04.

`FC(F)(F)c1cccc(-c2nc3c(s2)CN(C2CCCC2)CC3)c1` gave a viability index of 0.577. `O=C(C1CC1)N1CCN=C1SCc1ccc(C(F)(F)F)cc1`: the viability index came to 0.545. The figure for `O=S(=O)(c1ccc(Cl)cc1)N1CCN(C(=S)NCc2ccco2)CC1` is 0.959; for `O=c1oc(-c2ccccc2F)nc2sc3c(c12)CCCC3` it is 0.823. `Cc1cc(NS(=O)(=O)c2ccc(N=Cc3ccc(C#N)cc3)cc2)no1` yielded a viability index of 0.817.

On to `CC1CC(C)CN(S(=O)(=O)c2ccc(C(=O)Nc3ccc(-c4nc5ccccc5o4)cc3)cc2)C1` (centres undefined), for which the viability index was 0.842. With `CCOC(=O)c1c(NC(=O)COc2ccccc2[N+](=O)[O-])sc(C(C)=O)c1C` the figure was 0.76. `CC1N=C2c3ccccc3N=C(SCc3ccc(F)cc3)N2C1=O` (centres undefined) came in with a viability index of 1.04. With `CCN(CC)CCNC(=O)c1cc(-c2cc3ccccc3s2)cc(-n2cnnn2)c1` the figure was 0.952; with `Cc1ccc2c(Cl)c(C(=O)N3CC(C)OC(C)C3)sc2c1` (centres undefined), 0.869. The figure for `COc1cc(C2c3[nH]c4ccccc4c3C[C@H]3C(=O)N(CCc4ccccc4)CC(=O)N23)cc(OC)c1OC` (some centres undefined) is 0.767; for `COc1cc2c(cc1OC)C(=NN=C1NC(C)(C)Cc3ccccc31)NC(C)(C)C2` it is 1. `CCOC(=O)C1=CN(c2cc(C)ccc2C)C=C(C(=O)OCC)C1c1ccccc1OCC` had a viability index of 0.698. The figure for `CCN(Cc1ccccc1)c1ncnc2ccc(Br)cc12` is 1.06. For `COc1cc(C=C(C#N)c2nc3ccccc3[nH]2)ccc1OCc1ccc(C)cc1`, the viability index came to 0.615. With `O=C(Nc1ccccc1Cl)NC1(C(=O)NCC2CCCO2)CCCCC1` (centres undefined) the figure was 0.891; with `COC(=O)c1sc2nc(CN3CCCC(C)C3)ccc2c1NC(=O)c1ccc(C)s1` (centres undefined), 0.875. In the case of `O=[N+]([O-])c1cccc(Cl)c1N1CCN(S(=O)(=O)Cc2ccccc2)CC1`, the viability index was 1. With `Cc1cc(N2CCN(C3CCCCC3)CC2)n2c(nc3ccccc32)c1C#N`, the viability index was 0.94. The figure for `CNC(=O)NNC(=O)c1cccnc1` is 1.35. Regarding `COc1ccc(C=NNc2nc3cc(Cl)ccc3[nH]2)cc1OC`, the viability index was found to be 0.735. The figure for `CCC1CCCCN1C(=O)C1CC(=O)N(c2ccc(OC)cc2)C1c1ccc(OC)cc1` (centres undefined) is 0.798.

The molecule `CC[n+]1c(C=C2Sc3oc4ccccc4c3N2C)ccc2cc(C)ccc21` displayed a viability index of 0.473. The figure for `Cc1nc(N2CCCCC2)c2c(C)c(C(=O)N3CCN(c4cccc(Cl)c4)CC3)sc2n1` is 0.73; for `CC(NC(=O)c1cnn2c(C(F)(F)F)cc(-c3ccc(Br)cc3)nc12)c1ccccc1` (centres undefined) it is 1.14; for `CCOC(=O)C1=C(c2ccccc2)N=c2sc(=Cc3cc(OC)c(OC)c(OC)c3)c(=O)n2C1c1c(OC)ccc2ccccc12` (centres undefined) it is 0.623.

As for `CCOC(=O)c1ccc(OCC2c3cc(OC)c(OC)cc3CCN2C(=O)c2ccc([N+](=O)[O-])cc2)cc1` (centres undefined), the viability index turned out to be 0.921. With `CN(C)c1ccc(/C=C2\N=C(c3ccccc3F)OC2=O)cc1` the figure was 0.896; with `COCCNC(=S)N1CCN(S(=O)(=O)c2ccc([N+](=O)[O-])cc2)CC1`, 0.327. With `CCN(CC)CCNc1ccnc2cc3ccccc3cc12` the figure was 0.435; with `CCN(CC)C(=O)N1CCN(c2ccc(Nc3ccnc4cc5ccccc5cc34)cc2)CC1`, 0.801. With `O=C(NNc1ccccc1F)C1CCC1` the figure was 1.46; with `O=C(CSc1nc2ccccc2c(=O)n1CCCN1CCOCC1)Nc1cccc(S(=O)(=O)N2CCCCCC2)c1`, 0.969; with `Cc1cc(C)n(-c2ccc(NC(=O)C3CCN(Cc4ccncc4)CC3)cc2)n1`, 0.885.

`COc1ccc(NC(C)=C2C(=O)c3ccccc3C2=O)c(OC)c1` yielded a viability index of 0.99.

As to `CC1(C)CC(=O)C2=C(C1)NC(=O)CC2c1ccc(C(C)(C)C)cc1` (centres undefined), the viability index worked out at 0.92. The figure for `Cc1cc(S(=O)(=O)NC(Cc2ccc([N+](=O)[O-])cc2)C(=O)O)c(Cl)cc1Cl` (centres undefined) is 0.983; for `CCc1ccc(CN2CCC(O)(c3ccc4oc(C(=O)Nc5ccc6c(c5)OCO6)cc4c3)CC2)cc1` it is 1.38. The molecule `COC(=O)C1=C(C)NC2=C(C(=O)CC(c3ccccc3)C2)C1c1cc(C)sc1SC` (centres undefined) displayed a viability index of 0.927. Take `Cc1cc(C)cc(-n2c(C)cc(C=C3SC(=Nc4ccc(Cl)cc4)NC3=O)c2C)c1`: the viability index is 0.491. The figure for `Cc1cccc(NS(=O)(=O)c2ccc3[nH]c(=O)ccc3c2)c1C` is 1.04; for `Cc1nc2ccc(Br)cc2c(O)c1CC(C)C` it is 0.659. With `COc1ccc(-c2cc(-c3ccc(C)cc3)[nH]n2)c(O)c1` the figure was 0.845; with `CCN(CC)c1ccc(C=C(C#N)c2nc3ccccc3[nH]2)o1`, 0.609; with `C1=C(c2ccccc2)CCN(c2ncnc3c2nc2n3CCCCC2)C1`, 0.916. The figure for `CCOC(=O)N1CCN(c2ccc(C(F)(F)F)cn2)CC1` is 0.768; for `CCOC(=O)C1CCN(C(=O)c2cc(C(C)(C)C)nn2Cc2ccc(Cl)cc2Cl)CC1` it is 0.788. `CCOC(=O)c1c(CNCCN(CC)CC)n(C)c2cc(Br)c(OC(C)=O)cc12`: the viability index came to 0.606. With `COc1cc(C(Nc2ccccn2)c2ccc3cccnc3c2O)cc(Br)c1OC` (centres undefined) the figure was 0.907; with `CN(C)CCNc1c2c(nc3ccccc13)CCC2`, 0.953; with `CC(=O)c1ccc(OCCSc2nc3c(N)ncnc3[nH]2)cc1`, 1.51. Consider `O=C(NN=Cc1ccc(Br)cc1)c1ccco1`, for which the viability index is 0.744. In turn, `COc1cc(-c2cc(C)c3c(OC)ccc(OC)c3n2)cc2c1OCCN(C(=O)CCn1nc(C)cc1C)C2` came in with a viability index of 0.798. The figure for `C[n+]1c(C=CNc2ccccc2)n(-c2ccccc2)c2ccc(Cl)cc21` is 0.667; for `O=C1CSC(=NN=Cc2cccnc2)N1c1ccccc1` it is 0.962; for `CCOC(=O)c1c(S(=O)(=O)Nc2ccc(C(C)(C)C)cc2)c(-c2ccccc2)n(-c2ccccc2)c1C` it is 0.664. The figure for `CCCCCc1ccc(C(=O)N(C)CCCNc2ccnc3cc(Cl)ccc23)cc1` is 0.714; for `C=CCn1c(=N)n(CC(O)c2ccc(Cl)c(Cl)c2)c2ccccc21` (centres undefined) it is 0.483; for `C[N+](C)(CC#Cc1ccccc1)CC#Cc1ccccc1` it is 0.764. Regarding `COc1ccc2c(c1)C(C)=CC(C)(C)N2C(=O)CSc1nnc(-c2ccc(C)cc2)o1`, the viability index was found to be 0.876. In the case of `O=[N+]([O-])c1ccc(-c2ccc(C=NNc3nc(Nc4ccccc4)nc(Nc4ccccc4)n3)o2)cc1`, the viability index worked out at 0.626. With `CCOC(=O)c1c(C)oc2c1C(=O)c1ccccc1C2=O` the figure was 0.902. The figure for `COc1cccc(-c2ccc(O)c(CNC34CC5CC(CC(C5)C3)C4)c2)n1` is 0.577. Molecule `CCCOC(=O)C1=C(C)NC2=C(C(=O)CC(c3ccc(OC)cc3)C2)C1c1cccc(F)c1` (centres undefined) displayed a viability index of 0.898.

The molecule `O=C(Nc1ccccc1O)c1ccc(Cl)cc1` came in with a viability index of 1.04. Molecule `Cc1cccc2c1[nH]c1nc(SCC(C)C)nnc12` gave a viability index of 0.921. With `CCOC(=O)C1=C(C)N=c2sc(=Cc3ccccc3OCc3ccccc3)c(=O)n2C1c1ccccc1OC(C)C` (centres undefined) the figure was 0.788. With `Sc1nc2ccc3nsnc3c2[nH]1` the figure was 0.827. On to `CC(C)Cc1ccc(C=CC(=O)NC2CC2)cc1`, for which the viability index came out at 0.626. With `COc1ccc(-c2csc3ncn(N)c(=O)c23)cc1` the figure was 0.92; with `COc1ccc(OCCNC(=O)c2ccccc2Cl)cc1`, 0.897.

On to `CC1CCN(CCCNc2ccc(C(=O)Nc3ccc(C(F)(F)F)cc3)cc2[N+](=O)[O-])CC1`, for which the viability index came to 1.01. The figure for `O=C(Cc1cccs1)N1CCN(c2ccccn2)CC1` is 1.06; for `O=C(Nc1cccnc1)c1cc(-c2cccnc2)nc2ccc(Cl)cc12` it is 0.539. As for `O=C(NNS(=O)(=O)c1ccccc1[N+](=O)[O-])c1ccccc1`, the viability index was 0.947. With `CCN(CC)C(CN1CCN(CC(C)C(=O)c2ccc(O)cc2)CC1)c1ccc(F)cc1` (centres undefined) the figure was 0.791; with `Oc1ccc(Nc2ccnc3cc(Cl)ccc23)cc1`, 0.959. The figure for `Cc1cc(Nc2ccc(C)c(C)c2)n2cnnc2n1` is 1.17. As for `Cc1cc(Nc2cccc([N+](=O)[O-])c2)nc2cc(O)ccc12`, the viability index stood at 0.819. Take `C1CCC(CN2CCc3nc(N4CCCCC4)sc3C2)CC1`: the viability index was determined as 0.601. With `CCOC(=O)C1=C(C)NC2=C(C(=O)CC(c3ccc(OC)c(OC)c3)C2)C1c1cccc(C)c1` (centres undefined) the figure was 0.68.
